In paper PMC7972451 one finds binding data, which are given here for seven molecules.

By UniProt entry, the sequences of proteins in these tests, tags left out. Residues count along the entry.
UniProt P19491, residues 22-883: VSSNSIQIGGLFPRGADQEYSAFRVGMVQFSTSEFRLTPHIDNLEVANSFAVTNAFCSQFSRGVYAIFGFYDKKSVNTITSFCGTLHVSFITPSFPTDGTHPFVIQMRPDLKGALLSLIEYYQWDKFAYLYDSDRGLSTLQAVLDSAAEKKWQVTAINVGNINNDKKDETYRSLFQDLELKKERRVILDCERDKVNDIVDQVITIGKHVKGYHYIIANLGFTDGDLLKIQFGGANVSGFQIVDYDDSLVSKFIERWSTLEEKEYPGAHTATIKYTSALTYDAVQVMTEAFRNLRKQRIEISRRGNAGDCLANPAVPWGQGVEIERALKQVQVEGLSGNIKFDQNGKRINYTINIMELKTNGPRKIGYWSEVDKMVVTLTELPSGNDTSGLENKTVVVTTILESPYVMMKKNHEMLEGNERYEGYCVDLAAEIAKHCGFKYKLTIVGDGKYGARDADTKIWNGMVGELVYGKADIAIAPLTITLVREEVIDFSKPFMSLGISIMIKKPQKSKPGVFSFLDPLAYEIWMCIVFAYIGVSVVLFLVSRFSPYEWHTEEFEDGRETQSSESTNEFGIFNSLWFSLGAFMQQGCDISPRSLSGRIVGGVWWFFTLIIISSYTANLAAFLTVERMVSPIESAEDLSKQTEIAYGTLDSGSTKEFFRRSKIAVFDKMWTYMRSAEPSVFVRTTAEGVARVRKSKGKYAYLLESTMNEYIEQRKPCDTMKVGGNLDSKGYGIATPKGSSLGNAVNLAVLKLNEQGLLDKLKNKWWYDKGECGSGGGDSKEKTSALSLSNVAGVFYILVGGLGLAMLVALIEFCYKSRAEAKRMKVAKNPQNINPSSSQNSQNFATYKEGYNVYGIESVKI
UniProt P46935: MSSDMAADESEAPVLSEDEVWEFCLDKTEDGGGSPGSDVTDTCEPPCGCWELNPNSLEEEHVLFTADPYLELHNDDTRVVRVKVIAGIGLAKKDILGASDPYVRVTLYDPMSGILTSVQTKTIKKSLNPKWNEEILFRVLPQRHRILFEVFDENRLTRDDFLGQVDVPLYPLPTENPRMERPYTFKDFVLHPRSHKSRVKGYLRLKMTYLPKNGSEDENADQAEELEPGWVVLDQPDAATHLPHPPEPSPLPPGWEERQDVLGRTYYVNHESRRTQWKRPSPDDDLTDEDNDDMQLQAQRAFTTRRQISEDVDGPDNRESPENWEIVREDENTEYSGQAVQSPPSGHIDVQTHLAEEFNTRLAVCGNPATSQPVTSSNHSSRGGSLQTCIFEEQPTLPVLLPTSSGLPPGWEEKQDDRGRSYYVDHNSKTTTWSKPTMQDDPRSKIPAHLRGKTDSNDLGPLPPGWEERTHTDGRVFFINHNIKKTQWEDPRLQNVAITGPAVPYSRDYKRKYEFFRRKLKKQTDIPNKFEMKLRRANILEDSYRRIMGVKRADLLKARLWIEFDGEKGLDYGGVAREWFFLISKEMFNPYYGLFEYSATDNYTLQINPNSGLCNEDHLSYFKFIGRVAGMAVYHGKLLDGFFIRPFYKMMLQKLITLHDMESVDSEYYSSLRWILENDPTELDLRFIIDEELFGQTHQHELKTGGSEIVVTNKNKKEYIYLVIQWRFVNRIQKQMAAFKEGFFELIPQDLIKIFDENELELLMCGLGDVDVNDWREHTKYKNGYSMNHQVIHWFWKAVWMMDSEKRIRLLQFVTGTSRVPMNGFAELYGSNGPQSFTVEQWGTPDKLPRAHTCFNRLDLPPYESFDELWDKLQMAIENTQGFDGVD
UniProt P46934: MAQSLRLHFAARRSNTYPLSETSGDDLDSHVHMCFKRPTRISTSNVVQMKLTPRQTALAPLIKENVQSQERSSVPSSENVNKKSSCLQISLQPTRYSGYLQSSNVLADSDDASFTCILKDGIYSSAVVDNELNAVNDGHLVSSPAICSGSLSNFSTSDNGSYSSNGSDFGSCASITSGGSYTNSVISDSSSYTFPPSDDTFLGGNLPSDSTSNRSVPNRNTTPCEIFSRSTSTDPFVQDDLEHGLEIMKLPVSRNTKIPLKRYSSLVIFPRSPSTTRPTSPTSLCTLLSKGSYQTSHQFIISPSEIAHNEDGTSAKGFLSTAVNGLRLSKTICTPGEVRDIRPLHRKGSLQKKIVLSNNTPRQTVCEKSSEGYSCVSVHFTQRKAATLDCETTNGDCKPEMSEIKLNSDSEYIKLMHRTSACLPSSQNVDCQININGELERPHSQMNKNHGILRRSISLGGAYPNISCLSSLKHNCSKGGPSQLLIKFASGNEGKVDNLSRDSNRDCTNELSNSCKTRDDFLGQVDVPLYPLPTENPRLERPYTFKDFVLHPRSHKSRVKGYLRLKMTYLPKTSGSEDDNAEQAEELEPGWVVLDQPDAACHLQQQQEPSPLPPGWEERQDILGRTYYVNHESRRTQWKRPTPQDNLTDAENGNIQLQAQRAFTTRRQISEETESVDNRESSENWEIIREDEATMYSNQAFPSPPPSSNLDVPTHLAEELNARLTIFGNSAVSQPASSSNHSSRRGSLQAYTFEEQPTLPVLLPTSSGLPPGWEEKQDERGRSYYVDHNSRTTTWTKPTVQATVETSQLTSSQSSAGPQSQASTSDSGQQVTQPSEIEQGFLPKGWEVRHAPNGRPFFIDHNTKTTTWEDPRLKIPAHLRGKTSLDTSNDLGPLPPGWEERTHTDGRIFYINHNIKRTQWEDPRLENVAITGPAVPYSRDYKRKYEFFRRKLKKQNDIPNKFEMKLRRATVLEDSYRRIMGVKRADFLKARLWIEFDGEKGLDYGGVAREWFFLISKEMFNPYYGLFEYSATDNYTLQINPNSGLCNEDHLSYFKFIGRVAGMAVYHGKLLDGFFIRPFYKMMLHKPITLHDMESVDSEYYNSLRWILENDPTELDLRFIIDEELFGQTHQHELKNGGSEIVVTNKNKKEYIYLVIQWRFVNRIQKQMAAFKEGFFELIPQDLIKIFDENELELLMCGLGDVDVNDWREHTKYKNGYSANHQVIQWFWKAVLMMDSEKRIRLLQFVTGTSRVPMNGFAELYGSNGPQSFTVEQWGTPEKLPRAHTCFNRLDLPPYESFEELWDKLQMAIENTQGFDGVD
UniProt Q9JLB9, residues 58-549: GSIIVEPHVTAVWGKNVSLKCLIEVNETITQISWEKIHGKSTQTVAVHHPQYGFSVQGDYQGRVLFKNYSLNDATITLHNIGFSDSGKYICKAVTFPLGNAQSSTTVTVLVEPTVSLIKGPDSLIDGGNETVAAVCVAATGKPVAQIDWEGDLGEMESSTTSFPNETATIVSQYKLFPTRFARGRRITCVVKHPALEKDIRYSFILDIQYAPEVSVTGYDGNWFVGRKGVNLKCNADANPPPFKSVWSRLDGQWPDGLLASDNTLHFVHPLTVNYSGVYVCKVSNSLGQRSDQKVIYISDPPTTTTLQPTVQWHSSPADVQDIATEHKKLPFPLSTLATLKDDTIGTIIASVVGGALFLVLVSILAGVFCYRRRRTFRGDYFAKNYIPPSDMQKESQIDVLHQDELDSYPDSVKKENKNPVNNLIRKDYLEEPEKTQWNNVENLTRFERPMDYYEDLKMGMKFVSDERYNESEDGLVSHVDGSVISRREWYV
UniProt Q8C863: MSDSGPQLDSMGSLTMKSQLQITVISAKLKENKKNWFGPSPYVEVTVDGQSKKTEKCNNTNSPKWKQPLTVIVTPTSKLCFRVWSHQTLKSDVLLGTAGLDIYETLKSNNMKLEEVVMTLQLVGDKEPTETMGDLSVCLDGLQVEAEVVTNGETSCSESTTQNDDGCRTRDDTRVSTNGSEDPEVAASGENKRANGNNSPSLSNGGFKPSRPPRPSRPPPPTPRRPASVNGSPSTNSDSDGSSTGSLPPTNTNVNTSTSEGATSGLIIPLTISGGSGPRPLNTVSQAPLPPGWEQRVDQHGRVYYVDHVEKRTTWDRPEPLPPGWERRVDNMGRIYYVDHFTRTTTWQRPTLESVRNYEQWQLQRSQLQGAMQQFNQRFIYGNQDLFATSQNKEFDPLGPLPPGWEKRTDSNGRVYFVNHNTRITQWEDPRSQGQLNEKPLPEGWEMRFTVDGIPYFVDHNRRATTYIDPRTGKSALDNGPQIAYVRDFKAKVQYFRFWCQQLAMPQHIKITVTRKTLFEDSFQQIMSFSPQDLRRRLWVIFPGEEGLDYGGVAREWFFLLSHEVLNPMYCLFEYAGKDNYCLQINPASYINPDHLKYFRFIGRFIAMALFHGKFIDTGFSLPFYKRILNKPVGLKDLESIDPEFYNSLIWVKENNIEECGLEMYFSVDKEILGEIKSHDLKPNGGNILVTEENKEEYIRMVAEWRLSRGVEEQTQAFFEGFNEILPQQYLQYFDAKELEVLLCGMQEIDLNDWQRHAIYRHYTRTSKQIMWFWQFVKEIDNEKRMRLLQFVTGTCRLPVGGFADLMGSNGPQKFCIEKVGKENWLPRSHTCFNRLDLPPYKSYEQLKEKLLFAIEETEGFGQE

Test [1] has as its target T1, HA-tagged full-length SUSD4 (mouse) (UniProt Q8BH32).
T1 sequence: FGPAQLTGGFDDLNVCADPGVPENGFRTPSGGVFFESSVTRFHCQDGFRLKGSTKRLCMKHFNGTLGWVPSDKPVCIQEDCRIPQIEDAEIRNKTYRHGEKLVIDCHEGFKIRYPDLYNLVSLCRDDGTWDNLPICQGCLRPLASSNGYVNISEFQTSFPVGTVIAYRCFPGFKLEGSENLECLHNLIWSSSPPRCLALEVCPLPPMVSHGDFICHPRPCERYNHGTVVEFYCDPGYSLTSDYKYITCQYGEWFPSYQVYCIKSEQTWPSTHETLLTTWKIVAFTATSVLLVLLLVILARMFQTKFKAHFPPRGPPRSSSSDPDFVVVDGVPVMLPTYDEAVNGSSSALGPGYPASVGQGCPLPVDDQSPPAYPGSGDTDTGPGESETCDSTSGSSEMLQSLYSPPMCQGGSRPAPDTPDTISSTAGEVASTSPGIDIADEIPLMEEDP
Briefly: pull-down; HA-SUSD4 or HA-SUSD4ΔCT from transfected HEK293H lysate held on anti-HA antibody and protein G-sepharose beads (or GFP-coated beads as control), washed, incubated 3 hr at 4°C with lysate of cerebellar synaptosomes of P30 WT mice; washes with lysis buffer plus 0.1% SDS; immunoblot for NEDD4, ITCH, WWP1 and HA; only the target purified.

Test [2] has as its target T2, HA-SUSD4-ΔLY (point mutation of the LPxY site) (mouse) (UniProt Q8BH32).
T2 sequence: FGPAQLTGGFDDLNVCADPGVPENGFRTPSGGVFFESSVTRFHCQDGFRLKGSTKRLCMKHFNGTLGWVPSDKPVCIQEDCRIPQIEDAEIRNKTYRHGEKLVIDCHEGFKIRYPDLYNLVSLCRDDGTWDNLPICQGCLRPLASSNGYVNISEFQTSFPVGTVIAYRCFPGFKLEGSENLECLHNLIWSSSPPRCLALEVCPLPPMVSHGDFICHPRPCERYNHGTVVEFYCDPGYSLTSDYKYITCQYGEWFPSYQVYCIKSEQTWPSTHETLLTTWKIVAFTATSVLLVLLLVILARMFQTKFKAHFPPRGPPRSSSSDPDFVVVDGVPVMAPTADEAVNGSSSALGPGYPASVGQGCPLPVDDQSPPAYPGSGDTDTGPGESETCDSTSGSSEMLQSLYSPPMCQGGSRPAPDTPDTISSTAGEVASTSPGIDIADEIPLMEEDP
Briefly: co-IP; HEK293H cells transfected with SEP-GluA2 together with one of the HA-SUSD4 constructs; precipitation with rat anti-HA antibody on Dynabeads Protein G, 1 hr at 4°C; immunoblot for GluA2 and endogenous NEDD4. In general terms: A western blot detects proteins with antibodies after separation by electrophoresis.

Test [3] has as its target T3, HA-SUSD4-ΔNT (lacking the extracellular domain) (mouse) (UniProt Q8BH32).
T3 sequence: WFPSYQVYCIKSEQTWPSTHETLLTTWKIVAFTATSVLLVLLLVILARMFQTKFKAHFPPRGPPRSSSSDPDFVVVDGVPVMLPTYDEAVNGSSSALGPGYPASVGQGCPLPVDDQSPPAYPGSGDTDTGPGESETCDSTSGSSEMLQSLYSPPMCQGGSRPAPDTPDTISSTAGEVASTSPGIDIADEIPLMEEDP
The description is as above.

The target in test [4] is T4, HA-SUSD4-ΔPY (point mutation of the PPxY site) (mouse) (UniProt Q8BH32).
T4 sequence: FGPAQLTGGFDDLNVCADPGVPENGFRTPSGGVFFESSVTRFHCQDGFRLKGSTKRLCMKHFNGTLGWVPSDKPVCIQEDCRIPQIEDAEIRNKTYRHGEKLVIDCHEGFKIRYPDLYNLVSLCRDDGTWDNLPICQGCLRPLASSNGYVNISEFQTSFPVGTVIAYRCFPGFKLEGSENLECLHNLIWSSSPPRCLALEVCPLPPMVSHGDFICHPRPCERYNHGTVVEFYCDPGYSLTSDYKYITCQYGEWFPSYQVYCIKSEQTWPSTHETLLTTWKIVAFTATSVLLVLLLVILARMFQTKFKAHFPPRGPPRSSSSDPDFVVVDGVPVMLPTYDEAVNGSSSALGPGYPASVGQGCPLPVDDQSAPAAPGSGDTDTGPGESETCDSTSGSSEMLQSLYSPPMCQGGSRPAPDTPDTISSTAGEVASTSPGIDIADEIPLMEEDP
The test is described as above.

The target in test [5] is T5, HA-SUSD4-ΔPY/LY (double mutant at both PPxY and LPxY) (mouse) (UniProt Q8BH32).
T5 sequence: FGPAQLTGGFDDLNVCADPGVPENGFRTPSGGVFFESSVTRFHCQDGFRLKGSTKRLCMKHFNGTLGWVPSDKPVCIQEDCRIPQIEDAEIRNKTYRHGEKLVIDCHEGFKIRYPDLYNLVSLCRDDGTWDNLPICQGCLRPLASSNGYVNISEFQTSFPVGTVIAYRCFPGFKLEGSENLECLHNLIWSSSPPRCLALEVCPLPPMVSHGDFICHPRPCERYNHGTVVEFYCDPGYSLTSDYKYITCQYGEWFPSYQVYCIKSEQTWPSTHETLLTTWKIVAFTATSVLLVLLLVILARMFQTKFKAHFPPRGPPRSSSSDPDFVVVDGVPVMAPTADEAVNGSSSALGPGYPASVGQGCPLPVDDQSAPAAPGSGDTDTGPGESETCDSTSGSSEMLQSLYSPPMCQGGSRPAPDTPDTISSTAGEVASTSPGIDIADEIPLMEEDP
Described as above.

Test [6] concerns the target T1, HA-tagged full-length SUSD4 (mouse). The description is as above.
Test [7] deals with SEP-tagged GluA2 (UniProt P19491). As to the kind of experiment: co-IP; HEK293H cells transfected with SEP-GluA2 together with HA-SUSD4 or PVRL3α; lysis in 50 mM Tris-HCl pH 8, 1% Triton X100; precipitation of SEP-GluA2 with mouse anti-GFP antibody on protein G Dynabeads, 1 hr at 4°C; immunoblot for HA-SUSD4, GluA2 and PVRL3α.
In test [8] the target is T6, HA-SUSD4-NT (extracellular form of SUSD4) (mouse) (UniProt Q8BH32).
T6 sequence: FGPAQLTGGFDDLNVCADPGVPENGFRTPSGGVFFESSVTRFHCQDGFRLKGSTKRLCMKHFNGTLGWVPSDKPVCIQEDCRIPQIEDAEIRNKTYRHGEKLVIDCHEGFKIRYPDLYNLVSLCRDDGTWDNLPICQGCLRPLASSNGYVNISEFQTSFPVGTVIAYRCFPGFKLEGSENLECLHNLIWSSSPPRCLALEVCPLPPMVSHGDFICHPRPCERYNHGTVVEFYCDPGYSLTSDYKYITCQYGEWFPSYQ
Briefly: co-IP; HEK293H cells transfected with SEP-GluA2 together with one of the HA-SUSD4 constructs; precipitation with rat anti-HA antibody on Dynabeads Protein G, 1 hr at 4°C; immunoblot for GluA2 and endogenous NEDD4.

Results are given in words; binding and its absence hold for the method and conditions named. Binding seen in cells or lysates may run through a third protein. Some results given as binding are weak or reduced against the parent protein; the word gives no strength. Sequences can lack the tags named with a protein.

As to “NEDD4-like E3 ubiquitin-protein ligase WWP1 (from UniProt Q8BZZ3 1-918) (enzyme)”, in test [1], the binding entry is given as “binds”.
Regarding “E3 ubiquitin-protein ligase NEDD4 (from UniProt P46935 1-887) (enzyme)”, in test [1], the binding entry is reported as “binds”.
Regarding “HECT ubiquitin ligase NEDD4 (endogenous in HEK293 cells) (from UniProt P46934 1-1319) (enzyme)”, the binding entry is “no binding” in test [2]; “binds” in test [3]; “binds” in test [4]; “no binding” in test [5]; “binds” in test [6].
In the case of “PVRL3α (control transmembrane protein) (from UniProt Q9JLB9 58-549)”, in test [7], the binding entry was “no binding”.
In the case of “E3 ubiquitin-protein ligase Itchy (from UniProt Q8C863 1-864) (enzyme)”, the binding result in test [1] is “binds”.
As for “SEP-tagged GluA2 (from UniProt P19491 22-883) (receptor)”, the binding result in test [8], in test [2], in test [3], in test [5] and in test [6] was “binds” in each case.

B1: HA-tagged full-length SUSD4 (protein, UniProt Q8BH32-1 42-490)
chain: FGPAQLTGGFDDLNVCADPGVPENGFRTPSGGVFFESSVTRFHCQDGFRLKGSTKRLCMKHFNGTLGWVPSDKPVCIQEDCRIPQIEDAEIRNKTYRHGEKLVIDCHEGFKIRYPDLYNLVSLCRDDGTWDNLPICQGCLRPLASSNGYVNISEFQTSFPVGTVIAYRCFPGFKLEGSENLECLHNLIWSSSPPRCLALEVCPLPPMVSHGDFICHPRPCERYNHGTVVEFYCDPGYSLTSDYKYITCQYGEWFPSYQVYCIKSEQTWPSTHETLLTTWKIVAFTATSVLLVLLLVILARMFQTKFKAHFPPRGPPRSSSSDPDFVVVDGVPVMLPTYDEAVNGSSSALGPGYPASVGQGCPLPVDDQSPPAYPGSGDTDTGPGESETCDSTSGSSEMLQSLYSPPMCQGGSRPAPDTPDTISSTAGEVASTSPGIDIADEIPLMEEDP
Turning to B1, the binding result in test [7] was “binds”.
